# Measured values from PubChem BioAssay (NCATS).
# Several values for one entry are separate records, joined by “and”; a condition that tells them apart may be missing. Identical values can stand only once. The inconclusive results got no clear call from the source; some entries with a clear call stand among them for comparison. Entries that show only a call come without a potency. For some of these results: A potency beside an inconclusive call is a rough fit, not a confirmed value. Activity calls are given as the source filed them. The call rests on the fitted dose curve; in most records, active means well fitted curve in the direction sought with a large enough effect; inconclusive means small, poorly fitted or top-dose-only effect, or another doubt; inactive means no such curve, though single readings can be large; an effect the other way counts as inactive or inconclusive.
# What was measured:
# [1] = Viability qHTS for spleen associated tyrosine kinase inhibitor (SYKi) naive MV4-11 cells (AID 1963823); conditions: MV4-11 AML viability, CellTiter-Glo luminescence, 72 h; viability (% of control): at 45 µM (top of the series); further: nearly all actives have a fitted effect of over 40% in size; further: potency means the concentration at half of the fitted maximal effect
# Method in brief: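 CellTiter-Glo luminescence, 10 min room-temperature incubation, gave viability. Cells: naive MV4-11 (500/well), treated 72 hr at 37 C, 5% CO2.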
# [2] = Quantitative highthroughput screen to assess conditional lethalithy of P12 Ichikawa cells grown in Human Plasma-Like Medium with dialyzed fetal bovine serum (HPLM+ds) (AID 1963879); conditions: Potency: viability; further: nearly all actives have a fitted effect of over 35% in size
# Method in brief: (§1)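 Each medium arm—HPLM with 10% dialyzed FBS, or RPMI1640 with 5 mM glucose and 10% untreated or dialyzed FBS—was screened against an 11-point, 3-fold compound titration for 48 h at 37 °C, with CellTiter-Glo luminescence as endpoint.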
# [3] = Quantitative highthroughput screen to assess conditional lethalithy of P12 Ichikawa cells grown in RPMI1640 with untreated serum (RPMI+s) (AID 1963881); conditions: Potency: viability; further: nearly all actives have a fitted effect of over 35% in size
# Method in brief: as §1
# [4] = Quantitative highthroughput screen to assess conditional lethalithy of SEM cells grown in Human Plasma-Like Medium with dialyzed fetal bovine serum (HPLM+ds) (AID 1963882); further: nearly all actives have a fitted effect of over 35% in size; further: potency means the concentration at half of the fitted maximal effect
# Method in brief: as §1
# [5] = Quantitative highthroughput screen to assess conditional lethalithy of SEM cells grown in RPMI1640 with unreated serum (RPMI+s) (AID 1963883); conditions: SEM B-ALL cells, CellTiter-Glo viability, 48 h; viability: at 45.8 µM (top of the series); further: nearly all actives have a fitted effect of over 35% in size
# Method in brief: as §1
# [6] = Quantitative highthroughput screen to assess conditional lethalithy of NOMO1 cells grown in Human Plasma-Like Medium with dialyzed fetal bovine serum (HPLM+ds) (AID 1963878); conditions: NOMO1 AML cells in HPLM+ds, CellTiter-Glo viability, 48 h; viability: at 45.8 µM (top of the series); further: nearly all actives have a fitted effect of over 35% in size; further: potency means the concentration at half of the fitted maximal effect
# Method in brief: as §1
# [7] = Cellular viability qHTS for adrenocortical cancer (ACC) cell line NCI-H295R (AID 1963990); conditions: CellTiter-Glo ATP luminescence, 48 h; activity change, negative = viability loss: at 46.1 µM (top of the series); further: nearly all actives have a fitted effect of over 60% in size; further: potency means the concentration at half of the fitted maximal effect
# Method in brief: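 Adrenocortical carcinoma cells, suspended at 300 000 cells/mL in serum-free DMEM plus ITS, rested overnight before pin transfer of compound. After two days' incubation, ATP-dependent luminescence was recorded and curve-fitted.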
# [8] = Quantitative highthroughput screen to assess conditional lethalithy of SEM cells grown in RPMI1640 with dialyzed fetal bovine serum (RPMI+ds) (AID 1963884); conditions: SEM B-ALL cells, RPMI+dialyzed FBS, CellTiter-Glo viability, 48 h; viability: at 45.8 µM (top of the series); further: nearly all actives have a fitted effect of over 35% in size; further: potency means the concentration at half of the fitted maximal effect
# Method in brief: as §1
# [9] = Quantitative highthroughput screen to assess conditional lethalithy of P12 Ichikawa cells grown in RPMI1640 with dialyzed fetal bovine serum (RPMI+ds) (AID 1963880); conditions: Potency: P12-Ichikawa viability
# Method in brief: as §1
# [10] = Cellular viability qHTS for adrenocortical cancer (ACC) cell line SW-13 (AID 1963989); conditions: SW-13 ACC cells viability, CellTiter-Glo, 48 h; activity (max response): active compounds read low; further: nearly all actives have a fitted effect of over 65% in size; further: potency means the concentration at half of the fitted maximal effect;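 on activity (max response): cells grown in serum-free medium with ITS supplement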
# Method in brief: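 IC50 and maximal-response values come from four-parameter logistic fits of titration data. SW-13 cells in serum-free medium received compounds (up to 46 uM final) for 48 h before CellTiter-Glo luminescence.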
# Tags describe the fitted curve by direction and shape.
compound,measurement,setting,value
COc1cc(OC)c(NC(=O)Nc2cc(C)on2)cc1Cl,Potency,[1],"inconclusive: 4.68 µM [cytotoxic, full curve]"
same,Potency,[2],inactive
same,Potency,[3],inactive
same,Potency,[4],"inconclusive: 33.2 µM [cytotoxic, single point]"
same,Potency,[5],inactive
Cc1cc2c(cc1C1(c3ccc(C(=O)O)cn3)CC1)C(C)(C)CCC2(C)C,Potency,[1],"inconclusive: 0.0092 µM [cytotoxic, full curve]"
same,Potency,[6],"inconclusive: 8.3 nM [cytotoxic, full curve, poor fit]"
same,Potency,[3],inactive
same,Potency,[7],inactive
CNC(=O)c1ccc(-c2cnc3ncc(Cc4ccc5ncccc5c4)n3n2)cc1F,Potency,[1],"inconclusive: 4.11 µM [cytotoxic, partial curve]"
same,Potency,[2],inactive
same,Potency,[3],inactive
same,Potency,[4],inactive
same,Potency,[8],inactive
Cc1nc(N)ncc1-c1nc(N2CCOCC2)c2sc(C(C)(C)O)cc2n1,Potency,[1],active: 2.59 µM and active: 3.32 µM
same,Potency,[6],active: 37.2 nM
same,Potency,[9],active: 372 nM
same,Potency,[10],"inconclusive: 10 µM [cytotoxic, partial curve]"
same,Potency,[7],active: 2.24 µM
COc1nc(C)cnc1NS(=O)(=O)c1cccnc1-c1ccc(-c2nnco2)cc1,Potency,[1],inactive
same,Potency,[6],inactive
same,activity (max response),[10],inactive: 3.93%
same,Potency,[7],inactive
NC(=O)c1ccc(N(C(N)=O)c2c(F)cccc2F)nc1-c1ccc(F)cc1F,Potency,[1],"inconclusive: 5.8 µM [cytotoxic, full curve] and inconclusive: 5.25 µM [cytotoxic, partial curve, poor fit]"
same,Potency,[6],inactive
same,Potency,[3],inactive
same,Potency,[4],"inconclusive: 9.35 µM [cytotoxic, single point]"
same,Potency,[8],"inconclusive: 11.8 µM [cytotoxic, single point]"
